{"source": "the RNAGym collection of RNA variant scans (doi:10.7554/elife.90254)", "parents": {"B1": {"name": "LINE1-mini (parent)", "chain": "GGCAGAGCUCAACACAGCGUGGCAAAGUGGCUGUGGCUAGACUGCC"}}, "note": "Read counts are not given, so values of variants with three or more changes are uncertain."}
{"variants_of": "B1", "test": "self-cleavage, relative activity (ratio to wild type); higher = more cleavage; in vitro, sequencing; the parent is a self-cleaving ribozyme"}
{"variant": "GGCACAGCUCAACCCAGCGUGGCAACGUGGCUGUGGCUAGACUGGC", "self-cleavage": 0.02}
{"variant": "GGCAGAGCUCAACACAGUGUGGCAAAGUGGCUGAGGGUAGAGUGCC", "self-cleavage": 0.01}
{"variant": "GGGACAGCUCAGCACAAUGUGGCAAAGUGGCUGUUGCAAGACUGCC", "self-cleavage": 0.03}
{"variant": "GGCAGAGCUCAACACAGCGUGGCGAAGUGUCUGUGGCCGGACUUCC", "self-cleavage": 0.04}
{"variant": "GGCAGAGGUCAACGCAGCUUGGCAAGGUGGUUGUGGCUAGCCUGCC", "self-cleavage": 0.03}
{"variant": "GGCAGAGAUCAACUCAGCGUGGCAAAGUGGCUGAGGCUAGACUGCC", "self-cleavage": 0.57}
{"variant": "GUCAGAGCUCAACACAGCGUCGCAAAGUGGCUGUGACUAGACUGCC", "self-cleavage": 0.02}
{"variant": "GGCAGGGCUCAACACAGCGUGGCAAAGUGGUUGUGGCAAGACUGCA", "self-cleavage": 0.01}
{"variant": "UCCACAGCUCAACACAGGGUGGCAAAUUGGCUGUGGCUAGUCUGCC", "self-cleavage": 0.02}
{"variant": "GGCAGAGCUCAACACAGCGUGGCAAGGUGGCAGUGGCUGGACUGCC", "self-cleavage": 0.01}
{"variant": "GGCAGAGCUAAACACAGCGUGCCAAUGUGGCUGUGGCUAGACUGCC", "self-cleavage": 0.01}
{"variant": "GGCAGAUCUGAACACAGCGUGGCAAAGUGGCUGUCGCUAGACUGUC", "self-cleavage": 0.03}
{"variant": "GGAAGAGCUCAACACAGUGUGGCAAAGUGGCUGUGGCUCGACUGUC", "self-cleavage": 0.21}
{"variant": "GGCAGAGCUCAAUACAGCGUGGCAAAGUCGCUGUGGCUUGACUGCC", "self-cleavage": 0.06}
{"variant": "GGCAGAGGUCAACACCGCGUGGCUAAGUGGCUGUGCCUAGAAUGCC", "self-cleavage": 0.01}
{"variant": "GGAAGCACUCAACACAGCGUCGCAAAGUGGCUGGGGCUAGACUGCC", "self-cleavage": 0.05}
{"variant": "GGCAGAGAUCAACACAGCUUGGAAAAGUGGCUGUGGCUAAACGGCU", "self-cleavage": 0.01}
{"variant": "GGCAGAGUUCAACAAAGCGGGGCAAAGUGGCUGUGGCUAGACUGCC", "self-cleavage": 0.14}
{"variant": "GACUGAGCUCAACACAACGUGGCAAAGUGGCCGAGGCUAGACUGCC", "self-cleavage": 0.12}
{"variant": "GGCUGAGCCCAACACAGCGUGGCCAAGUUGCAGUGGCUAGCCUGCC", "self-cleavage": 0.01}
{"variant": "GGCUGAGCCCAACACAGCUUGGCAAAGUGGCUGUGGAUAGACUGCC", "self-cleavage": 0.02}
{"variant": "GGCAGAGCUCAACACAGCGUAGAAAAUUGACUGUGGCUAGACUGCC", "self-cleavage": 1.24}
{"variant": "GACAGAACUCAACAGAGCAUGGCAAAGUGACAGUGGCUAGACUGCC", "self-cleavage": 0.36}
{"variant": "GGCCGAGCUCAACACGACGUGUCAAAGUGGCUGUGGCUAGACUGCC", "self-cleavage": 0.04}
{"variant": "GGCAGAGUUCAACACAGCGUGGCAAAGUGGCUGUGGCUAUAAUGCC", "self-cleavage": 0.08}
{"variant": "GGUAGAGCAAAACACACCGUGGCAAAGUGGUUGUGGCUAGACUGGC", "self-cleavage": 0.03}
{"variant": "AGCAGACCUCAACACAGCGUGGCAAAGUGGCUAUGGCUAGACUGCA", "self-cleavage": 0.17}
{"variant": "GGCAGAGCACAACACAGCGUCGCAAAGUUGCUGUGGCUAGAGUGCC", "self-cleavage": 0.03}
{"variant": "GGCAGAGCUCAACACAGCGUGGCAAAGUGGCUUUGGCUAGACAUCC", "self-cleavage": 0.05}
{"variant": "GGCAGAACUCUACACAGCGUGGCAAAGUGGCGGUGGCUAGACUGCC", "self-cleavage": 0.05}
{"variant": "GGCAGAGCUCAACACAGCGUGGCAAUGUGGCUGUGGCUAGAUGGCC", "self-cleavage": 0.03}
{"variant": "GGCAGAGCCCAACACAGCGUUGCAAAGUGGAUGUGGCUAGACUGGC", "self-cleavage": 0.04}
{"variant": "GGCAGAGCUCAACACAGCGUGGCUAAGUGGCUGUGGCUAAACUGCU", "self-cleavage": 0.03}
{"variant": "GGCAGAGCUCAACACAGCGUGGCACAGUGGGUGUGGCUUUACUGCC", "self-cleavage": 0.07}
{"variant": "GGCAGAGCUCAAUACAGCGUGGCAAAGUGGCUGGGGCUAGAAUGCC", "self-cleavage": 0.06}
{"variant": "GGCAAAACUCAACACAGCGUGGCAAAGUGGCUGUGGCUACACUGCC", "self-cleavage": 0.1}
{"variant": "GGCAGAACUCCACACAGAGUGGCAAAGUGGCUGUGGCUACACUGCC", "self-cleavage": 0.01}
{"variant": "GGCAGAGUUCAACACAGCGUGGCAAAGUGGUUGUGGCUAGACUGCU", "self-cleavage": 0.14}
{"variant": "GGCACAGCUCAACACAUCGUGGCAAAUUGGCAGCGGCUAGAAUGCC", "self-cleavage": 0}
{"variant": "GGCAUAGCUCCACUCCGCGUGGCAAAGUGGCUGUGGCUAGACUGAC", "self-cleavage": 0.03}
{"variant": "GUCAGAGCUCAACACAGCGUGGCACAGUGGCUGUGGCUCGACUCCG", "self-cleavage": 0.01}
{"variant": "GGGAGAGCUCGACACAGCGUGGCAAAGUGGCUGUGGCUUGACUGCC", "self-cleavage": 0.02}
{"variant": "GGGAGAGCUCAACACAGCGUGCCAAAGUGGCUGUGGGUAGAAUGCC", "self-cleavage": 0.04}
{"variant": "GGCAGAGCUCAAAACAGAGUGGCAAAGUCGCUGUGGCUAGACUGCC", "self-cleavage": 0.45}
{"variant": "GGCAGAGCUCAACACAGCGUGGCAAAGUAGUUGUGGCUUGACUGCC", "self-cleavage": 1.2}
{"variant": "GGCAGAGCUCACCCCAGCGUGGCAAAGAGGGUGUGCCUAGACUGCC", "self-cleavage": 0}
{"variant": "GGCAGAGCUCAAUACAGCGUGGCAAAGUUGCUGUGGCUAUACUGCC", "self-cleavage": 0.1}
{"variant": "GGCAGAGCUCAACACAGCGUGCCAAAGUGGCUGUGGCUAGAGUUCC", "self-cleavage": 0.03}
{"variant": "GGCAGAGCUCAACACAGCGAGGCAAAGUGGGUGUGGCUAGACUGGC", "self-cleavage": 0.03}
{"variant": "GGCUAAGCUCAAGACAGCGUGGCAAAGUGGCUGUGGCUAGACUGCC", "self-cleavage": 0.09}
{"variant": "GGCAGAACGCAACAUAGCGUGGCCAAGUGGCUGUGGCUAGACUGCC", "self-cleavage": 0.09}
{"variant": "GGAAGAGCUAAACACAGCGUGGCAAAGUGGCUCUGGCUAGACUGCC", "self-cleavage": 0.23}
{"variant": "GGCAGAGCUCAACGCCGCGUGGCAAAGUGGCUGUGGCUACACUGCC", "self-cleavage": 0.03}
{"variant": "GGCAGAGUUCAACACAGCGUGGCAAAGUGGGUGUAGCUAGACAGCC", "self-cleavage": 0.18}
{"variant": "GGCAGAGCUCAACGCAGCUUGGCGAAGUGGCUGUUGCUAGCCUGAC", "self-cleavage": 0.02}
{"variant": "GGCAGAGCUCAACACAGCGUGCCAAACUGGCUGUGGCUAGACUGUC", "self-cleavage": 0.09}
